# Laboratory results from ChEMBL document CHEMBL5308541, “MAIP: An Open-Source Tool to Enrich High-Throughput Screening Output and Identify Novel, Druglike Molecules with Antimalarial Activity” (ACS Med Chem Lett, 2023).
# The whole screen tested about 150,000 compounds, of which about 540 (0.36%) showed an effect of 50% or more. The list shows a part of the results.
# Tested on: Plasmodium falciparum
# Assay: Primary screen in NF54 nanoGlo assay, in single point, at 2uM, 72h; a lower Z score goes with more inhibition
# Format: functional, Erythrocyte
# Settings: timepoint 72 hour
Structure (SMILES),% Inhibition [%],Z score
CCc1cc(NC(=O)c2cccc(NC(C)=O)c2C)n(C)n1,-15,2.3
Cn1ncc2c(N)nc(N3CCO[C@@H](Cc4ccccc4)C3)nc21,-4,0.62
N#Cc1c(-c2cnc(N3CCCCC3)nc2)cc(-c2ccc[nH]2)nc1N,-17,2.63
CN1CCC[C@@H]1CCNc1ncnc2cccc(F)c12,9,-1.43
O[C@H]1CCN(C2CCN(c3nc4cnccc4s3)CC2)C1,-3,0.49
O=C(Cc1cc(Cl)ccc1Cl)NC1(CO)Cc2ccccc2C1,-3,0.46
O=C(Nc1ccccc1OCCN1CCNCC1)N1C2CCC1CC1(CC1)C2,5,-1.01
c1ncc(-c2ccc(N[C@@H]3CNCC4(CCOCC4)C3)cc2)o1,-5,0.71
Cc1nccc(-c2cccc(NCc3ncc(-c4cccc(Cl)c4)o3)c2)n1,-1,0.25
c1ccc(-c2cc(OCC3CCN(c4nccn5nccc45)CC3)ncn2)cc1,-1,0.16
O=C(Cn1cnc(C2CC2)cc1=O)N1CC(n2c(C3CC3)nc3ccccc32)C1,-5,0.77
CN(C)S(=O)(=O)N1CCC(CNc2ncnc3ccc(Cl)cc23)CC1,-2,0.24
COc1ccc2c(CC(=O)N(C)C3CC4CCC(C3)N4C(=O)OC(C)(C)C)coc2c1 (stereo unspecified),1,-0.24
Cc1ccc(Nc2ncc(-c3ccc(Cl)c(OC(F)(F)F)c3)cn2)cc1,-5,1
CC(C)N1C(=O)C[C@H](NC(=O)c2nn(-c3ccccc3)c3c2CCCCC3)C1=O,-2,0.35
Nc1nc(N[C@H]2CCN(CC(F)(F)F)C2)nc2ccccc12,-3,0.48
Cn1ccnc(NC[C@H]2CN(c3ncnc4[nH]ncc34)CCO2)c1=O,-4,0.91
COc1cccc([C@@H](Nc2ncc(Br)cn2)C(C)(C)C)c1,-9,1.51
N#Cc1cc2c(nc1NS(=O)(=O)Cc1cccc(C(F)(F)F)c1)CCCC2,-6,1.03
Cc1cc(CN2CCN(Cc3cccc(-c4ccncc4)c3)CC2)no1,-3,0.74
CCN(C)c1cc(NCCCN2CCC(C(N)=O)CC2)ncn1,-10,1.55
CC(C)(C)c1ccc(Cn2cc(-c3cnn(Cc4ccc(C(C)(C)C)cc4)c3)cn2)cc1,-3,0.7
COCCCCN1CCN(c2nccc(N3CC[C@H](O)C3)n2)CC1,1,-0.17
Cc1cc(-n2ccnc2)ccc1CN1CCC(N2CCO[C@@H](C)C2)CC1,2,-0.28
O[C@@H]1C[C@H]2CN(c3ncnc4[nH]ccc34)Cc3cccnc3N2C1,-3,0.49
Cc1csc(NC2CCN(C(=O)[C@@H]3COCCN3CC3CCC3)CC2)n1,-15,2.74
CC(C)N1CCN(C2CCN(C(=O)c3cccc(-c4ncn[nH]4)c3)CC2)CC1,-2,0.32

Structure (SMILES),% Inhibition [%],Z score
C1Cc2nc(C3CC3)nc(NC3COCC3N3CCOCC3)c2CCN1 (stereo unspecified),1,-0.19
C[C@@H](c1ccc(-c2c[nH]nc2-c2ccncc2)cc1)N1CCCC1,-10,1.5
CC(NC1CCCN(c2cc(N3CCOCC3)ncn2)C1)C1CC(F)(F)C1 (stereo unspecified),-1,0.22
Cc1cccc2c(CCNc3nc(N)nc4c3CCNCC4)c[nH]c12,10,-1.78
Cc1ccc2cccc(OCCNc3nc(N)nc4c3CCNC4)c2n1,3,-0.52
CCc1cc(NCc2ccnc(NC3CC3)c2)nc(-c2ccncc2)n1,-1,0.17
O=C(Nc1cc(N2CCNCC2)ccn1)[C@H]1CCCC2(CC2)C1,0,-0.04
CCCCc1c(C)nc(N)nc1NCc1nc(C)cc(C)n1,-4,0.88
O=C(C[C@H]1CCCC[C@@H]1O)Nc1cccc(Cl)c1O,7,-1
Cc1cc(=O)[nH]c2ccc(-c3cc(N)nc4[nH]ccc34)cc12,-4,0.73
CCOc1cccc(N2CCN(CC[C@H]3CCCN3C)CC2)n1,-4,0.74
O[C@@H]1CC(c2nnc[nH]2)C[C@@H]1CNc1cnc2cc(F)c(F)cc2n1 (stereo partly specified),-11,2.33
CNC(=O)c1cc(Oc2cc(C)ccc2NC(=O)c2cccc3[nH]c(C(F)F)nc23)ccn1,9,-1.84
CN1CCN(C2(CNC(=O)Nc3cccc(-c4ccco4)c3)CCCC2)CC1,-4,0.66
C[C@@H](CCNC(=O)c1cccc(Cn2c(=O)c3cccn3c3cccnc32)c1)N1CCCCCC1,-11,1.91
Cc1ccnc(NC[C@]2(O)CCCNCC2)n1,0,-0.04
N#Cc1ccc(NC[C@H](O)c2ccc(OC(F)(F)F)cc2)nc1,-3,0.47
O=C(NCc1cccnc1)c1ccc(N2CCC(NCCc3nc(-c4ccccc4)cs3)CC2)cc1,-5,0.86
CN(C)CCCN(CCCn1cccn1)CC1CCN(C2Cc3ccccc3C2)CC1,16,-2.76
CNc1cc(C)nc2cc(OC)ccc12,-6,0.97
COc1ccc(CNCC2CCN(C(C)C)CC2)cc1OC[C@@H](O)CN1CCN(C)CC1,-4,0.62
COc1cccc(OC)c1CN1CCOC(CO)C1c1ccccc1 (stereo unspecified),0,0.04
CNc1nc(C)cc(NCCc2nc3c(s2)CCCC3)n1,-2,0.29
c1cnnc(N2CCC(Nc3nc(C4CC4)nc4[nH]ccc34)CC2)c1,-12,2.05
Clc1ccc(NCCCN2CCCC2)cc1,0,-0.07
CCc1nc(C)c(CNC(=O)c2ccc3oc(C)cc3c2)s1,-4,0.76
